Consider 5 compounds from patent US5659049A, “Antioxidant, antiphospholipase derivatives of ricinoleic acid” (Virginia Commonwealth University, priority 1995, dated 1997).

In assay [1] the test system is Ca++-dependent PLA2s. The note with it: 10 μM concentrations.
For assay [2], the system named is PLA2 activities derived from human platelets and human polymorphonuclear leucocytes (PMNs). The experiment in a line: In vitro PLA2 inhibition by fatty acids.
The test system is the same in assay [3]. The following applies: to approximately the same extent for the three acids; Ballou and Cheng, Marki and Franson; cited from earlier work.

Read-outs that look alike come from different tables or passages of the source.

As to `CCCCC[C@H](O)/C=C/C1=C(CCCCCCC(=O)O)C(=O)CC1` [PGB1, prostaglandin B1], in assay [1], the “Inhibition of Ca++-dependent PLA2s” value is “not inhibitory”. Moreover, the “Less inhibitory of PLA2 than the precursor arachidonic acid, by” value in assay [2] (compared with arachidonic acid) is recorded as “at least 2 orders of magnitude”. As for `CCCCC/C=C\C/C=C\C/C=C\C/C=C\CCCC(=O)O` [arachidonic acid], the “Inhibition of in vitro PLA2 activity” value in assay [3] is given as “inhibited”. For the compound `CCCCC/C=C\C/C=C\CCCCCCCC(=O)O` [linoleic acid], in assay [3], the “Inhibition of in vitro PLA2 activity” value is “inhibited”. With `CCCCCCCC/C=C\CCCCCCCC(=O)O` [oleic acid], the “Inhibition of in vitro PLA2 activity” value in assay [3] was “inhibited”. Consider `CCCCCC[C@@H](O)C/C=C\CCCCCCCC(=O)O` [ricinoleic acid, 12-hydroxy-oleic acid], for which the “Inhibition of in vitro PLA2 activity” value in assay [2] (12-hydroxylation of oleic acid, recent studies) was “eliminates the inhibitory activity”.
